Some of the results follow.
Test system: HepG2
Assay: cytotoxicity call (relative viability < 0.9)
Details: 10 µM

Structure (SMILES)	cytotoxicity call
C[C@@H]1CCCCO[C@@H](CN(C)C(=O)CCC(F)(F)F)[C@@H](C)CN([C@H](C)CO)C(=O)c2cc(NC(=O)c3ccccc3)ccc2O1	inactive
COc1ccc(COCC23Oc4ccccc4[C@H]([C@H]2COC(=O)c2ccccc2)n2c(c4ccccc4c(-c4ccccc4)c2=O)N3C)cc1	active
CCOCCOCCOc1oc(C(=O)NC2CCCCC2)c(-c2ccc(Cl)cc2)c1S(=O)(=O)c1ccc(Cl)cc1	inactive
C[C@@H]1CCCCO[C@H](CN(C)Cc2ccc(Cl)c(Cl)c2)[C@@H](C)CN([C@H](C)CO)C(=O)c2cc(NS(=O)(=O)c3cn(C)cn3)ccc2O1	inactive
C[C@@H]1ON(c2ccc(C(=O)OC(C)(C)C)cc2)[C@H](c2ccc(Br)cc2)[C@H]1C(=O)N1C(=O)OC[C@H]1Cc1ccccc1	inactive
C[C@H](CO)N1C[C@H](C)[C@H](CN(C)Cc2ccccc2)Oc2ccc(NC(=O)CCCCCC(=O)Nc3ccccc3N)cc2CC1=O	inactive
O=C(O)CCC(=O)N[C@H]1CCCCNC1=O	inactive
Cc1noc(C)c1S(=O)(=O)Nc1ccc2c(c1)C(=O)N([C@@H](C)CO)C[C@@H](C)[C@H](CN(C)C)OCCCC[C@@H](C)O2	inactive
C[C@@H]1O[C@@H](O[C@@H]2[C@@H](O)[C@H](C)O[C@@H](OC[C@H]3O[C@@H](Oc4c(-c5ccc(O)cc5)oc5cc(O)cc(O)c5c4=O)[C@H](O)[C@@H](O)[C@H]3O)[C@@H]2O)[C@H](O)[C@H](O)[C@H]1O	inactive
CO[C@H]1CN(C)C(=O)c2cc(NC(=O)Nc3ccc(Cl)cc3)ccc2OC[C@H](C)N(C(=O)Nc2c(C)noc2C)C[C@H]1C	inactive
C[C@H]1CN([C@@H](C)CO)C(=O)c2c(c3ccccc3n2C)-c2ccccc2CO[C@@H]1CN(C)Cc1ccc(F)cc1	inactive
C[C@@H]1CCCCO[C@@H](CN(C)CC2CCCCC2)[C@@H](C)CN([C@@H](C)CO)C(=O)c2cc(NS(=O)(=O)c3ccccc3)ccc2O1	inactive
C[C@H]1CCCCO[C@@H](CN(C)S(=O)(=O)c2cn(C)cn2)[C@@H](C)CN([C@@H](C)CO)C(=O)c2cc(NS(=O)(=O)c3cccs3)ccc2O1	inactive
CC/1=C(CCC(=O)O)/C/2=C/c3[nH]c(c(c3CCC(=O)O)C)/C=C/3\N=C(/C=C/4\N=C(\C=C1/N2)C(=C4C)C=C)C(=C3C)C=C	active
COc1ccccc1OCC(O)COC(N)=O (stereo not drawn)	active
O=C(O)c1oc2ccccc2c1CSc1ccc(Cl)cc1	inactive
C[C@@H]1CCCCO[C@H](CN(C)C(=O)Nc2cccc3ccccc23)[C@H](C)CN([C@@H](C)CO)C(=O)c2cc(NS(=O)(=O)c3cn(C)cn3)ccc2O1	inactive
C[C@H](CO)N1C[C@H](C)[C@H](CN(C)Cc2ccc(Cl)c(Cl)c2)OCCCC[C@H](C)Oc2ccc(NC(=O)Nc3ccccc3)cc2C1=O	inactive
C[C@@H]1CCCCO[C@H](CN(C)C(=O)NC2CCCCC2)[C@@H](C)CN([C@H](C)CO)C(=O)c2cc(NC(=O)Nc3ccc4c(c3)OCO4)ccc2O1	inactive
CC(C)NC(=O)N(C)C[C@H]1Oc2ccc(NC(=O)CCCN(C)C)cc2C(=O)N([C@H](C)CO)C[C@H]1C	inactive
Cc1noc(C)c1NC(=O)N(C)C[C@H]1Oc2ccc(NC(=O)CCN3CCOCC3)cc2CC(=O)N([C@H](C)CO)C[C@@H]1C	inactive
COc1ccc(NC(=O)Nc2ccc3c(c2)[C@@H]2C[C@@H](CC(=O)NCc4ccncc4)O[C@@H](CO)[C@@H]2O3)cc1	inactive
CNC(=O)[C@H]1O[C@H](n2cnc3c(NCc4cccc(I)c4)ncnc32)[C@@H](O)[C@@H]1O	inactive
